From PMC5226500
Results are given in words; binding and its absence hold for the method and conditions named. Binding seen in cells or lysates may run through a third protein. Some binding calls cover weakened binding; strength is not graded here. Tags and fused reporters may be left off the sequences shown.

Chains of the proteins cited; added tags and fusions are not shown.
UniProt P60953: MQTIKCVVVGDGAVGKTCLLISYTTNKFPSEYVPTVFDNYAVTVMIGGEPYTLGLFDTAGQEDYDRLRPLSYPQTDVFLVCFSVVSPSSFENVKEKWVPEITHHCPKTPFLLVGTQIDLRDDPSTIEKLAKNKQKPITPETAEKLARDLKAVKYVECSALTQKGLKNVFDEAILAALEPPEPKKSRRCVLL

B1: Myc-Mig-6-Δ10 (domain or fragment, UniProt Q9UJM3 11-462)
chain: IRVPLKTGFLHNGRAMGNMRKTYWSSRSEFKNNFLNIDPITMAYSLNSSAQERLIPLGHASKSAPMNGHCFAENGPSQKSSLPPLLIPPSENLGPHEEDQVVCGFKKLTVNGVCASTPPLTPIKNSPSLFPCAPLCERGSRPLPPLPISEALSLDDTDCEVEFLTSSDTDFLLEDSTLSDFKYDVPGRRSFRGCGQINYAYFDTPAVSAADLSYVSDQNGGVPDPNPPPPQTHRRLRRSHSGPAGSFNKPAIRISNCCIHRASPNSDEDKPEVPPRVPIPPRPVKPDYRRWSAEVTSSTYSDEDRPPKVPPREPLSPSNSRTPSPKSLPSYLNGVMPPTQSFAPDPKYVSSKALQRQNSEGSASKVPCILPIIENGKKVSSTHYYLLPERPPYLDKYEKFFREAEETNGGAQIQPLPADCGISSATEKPDSKTKMDLGGHVKRKHLSYVVSP
B2: Myc-Mig-6(M26A/R30A) (protein, UniProt Q9UJM3 1-462)
chain: MSIAGVAAQEIRVPLKTGFLHNGRAAGNMAKTYWSSRSEFKNNFLNIDPITMAYSLNSSAQERLIPLGHASKSAPMNGHCFAENGPSQKSSLPPLLIPPSENLGPHEEDQVVCGFKKLTVNGVCASTPPLTPIKNSPSLFPCAPLCERGSRPLPPLPISEALSLDDTDCEVEFLTSSDTDFLLEDSTLSDFKYDVPGRRSFRGCGQINYAYFDTPAVSAADLSYVSDQNGGVPDPNPPPPQTHRRLRRSHSGPAGSFNKPAIRISNCCIHRASPNSDEDKPEVPPRVPIPPRPVKPDYRRWSAEVTSSTYSDEDRPPKVPPREPLSPSNSRTPSPKSLPSYLNGVMPPTQSFAPDPKYVSSKALQRQNSEGSASKVPCILPIIENGKKVSSTHYYLLPERPPYLDKYEKFFREAEETNGGAQIQPLPADCGISSATEKPDSKTKMDLGGHVKRKHLSYVVSP
B3: Myc-Mig-6-Δ30 (domain or fragment, UniProt Q9UJM3 31-462)
chain: KTYWSSRSEFKNNFLNIDPITMAYSLNSSAQERLIPLGHASKSAPMNGHCFAENGPSQKSSLPPLLIPPSENLGPHEEDQVVCGFKKLTVNGVCASTPPLTPIKNSPSLFPCAPLCERGSRPLPPLPISEALSLDDTDCEVEFLTSSDTDFLLEDSTLSDFKYDVPGRRSFRGCGQINYAYFDTPAVSAADLSYVSDQNGGVPDPNPPPPQTHRRLRRSHSGPAGSFNKPAIRISNCCIHRASPNSDEDKPEVPPRVPIPPRPVKPDYRRWSAEVTSSTYSDEDRPPKVPPREPLSPSNSRTPSPKSLPSYLNGVMPPTQSFAPDPKYVSSKALQRQNSEGSASKVPCILPIIENGKKVSSTHYYLLPERPPYLDKYEKFFREAEETNGGAQIQPLPADCGISSATEKPDSKTKMDLGGHVKRKHLSYVVSP
B4: Myc-Mig-6-Δ38 (domain or fragment, UniProt Q9UJM3 39-462)
chain: EFKNNFLNIDPITMAYSLNSSAQERLIPLGHASKSAPMNGHCFAENGPSQKSSLPPLLIPPSENLGPHEEDQVVCGFKKLTVNGVCASTPPLTPIKNSPSLFPCAPLCERGSRPLPPLPISEALSLDDTDCEVEFLTSSDTDFLLEDSTLSDFKYDVPGRRSFRGCGQINYAYFDTPAVSAADLSYVSDQNGGVPDPNPPPPQTHRRLRRSHSGPAGSFNKPAIRISNCCIHRASPNSDEDKPEVPPRVPIPPRPVKPDYRRWSAEVTSSTYSDEDRPPKVPPREPLSPSNSRTPSPKSLPSYLNGVMPPTQSFAPDPKYVSSKALQRQNSEGSASKVPCILPIIENGKKVSSTHYYLLPERPPYLDKYEKFFREAEETNGGAQIQPLPADCGISSATEKPDSKTKMDLGGHVKRKHLSYVVSP
B5: Myc-Mig-6(4A) [I11A/R12A/M26A/R30A] (protein, UniProt Q9UJM3 1-462)
chain: MSIAGVAAQEAAVPLKTGFLHNGRAAGNMAKTYWSSRSEFKNNFLNIDPITMAYSLNSSAQERLIPLGHASKSAPMNGHCFAENGPSQKSSLPPLLIPPSENLGPHEEDQVVCGFKKLTVNGVCASTPPLTPIKNSPSLFPCAPLCERGSRPLPPLPISEALSLDDTDCEVEFLTSSDTDFLLEDSTLSDFKYDVPGRRSFRGCGQINYAYFDTPAVSAADLSYVSDQNGGVPDPNPPPPQTHRRLRRSHSGPAGSFNKPAIRISNCCIHRASPNSDEDKPEVPPRVPIPPRPVKPDYRRWSAEVTSSTYSDEDRPPKVPPREPLSPSNSRTPSPKSLPSYLNGVMPPTQSFAPDPKYVSSKALQRQNSEGSASKVPCILPIIENGKKVSSTHYYLLPERPPYLDKYEKFFREAEETNGGAQIQPLPADCGISSATEKPDSKTKMDLGGHVKRKHLSYVVSP

target: HA-tagged Cdc42 (UniProt P60953); experiment: co-IP; 293T cells co-transfected with HA-Cdc42 and Myc-Mig-6 (wild type or mutant); lysed in EBC150 (150 mM NaCl, 0.5% NP-40, pH 8.0), precleared with mouse IgG-agarose, anti-HA agarose 3 h at 4°C, washed with PBS; blot for Myc or Cdc42

Question: For B1, which binding is on record?
Answer: Its binding is “binds”.

Question: With B2 as the binder, how does the binding read?
Answer: Its binding is “binds”.

Question: B3 was tested. Which binding did it give?
Answer: The binding was “no binding”.

Question: For B4, which binding is on record?
Answer: The binding was “no binding”.

Question: For B5, which binding is on record?
Answer: The binding was “no binding”.
